# Experimental data published in article PMC6919601, “Identification of Plasmodium dipeptidyl aminopeptidase allosteric inhibitors by high throughput screening” (PLoS ONE, 2019).
# Out of some 110,000 compounds screened, about 230 (0.21%) showed an effect of 50% or more. Some of the results follow.
# Target: DPAP1 (Plasmodium falciparum, UniProt Q8IIJ9)
# Assay: primary screen, percent inhibition; read by cleavage of a fluorogenic dipeptide substrate; higher = more effect of the substance
# Set-up: species or system P. falciparum D10 trophozoite lysates; single well
# 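Also: 30 min substrate incubation versus DMSO and 10 µM JCP410 controls.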
# Chain of DPAP1 (Q8IIJ9 whole entry, looked up): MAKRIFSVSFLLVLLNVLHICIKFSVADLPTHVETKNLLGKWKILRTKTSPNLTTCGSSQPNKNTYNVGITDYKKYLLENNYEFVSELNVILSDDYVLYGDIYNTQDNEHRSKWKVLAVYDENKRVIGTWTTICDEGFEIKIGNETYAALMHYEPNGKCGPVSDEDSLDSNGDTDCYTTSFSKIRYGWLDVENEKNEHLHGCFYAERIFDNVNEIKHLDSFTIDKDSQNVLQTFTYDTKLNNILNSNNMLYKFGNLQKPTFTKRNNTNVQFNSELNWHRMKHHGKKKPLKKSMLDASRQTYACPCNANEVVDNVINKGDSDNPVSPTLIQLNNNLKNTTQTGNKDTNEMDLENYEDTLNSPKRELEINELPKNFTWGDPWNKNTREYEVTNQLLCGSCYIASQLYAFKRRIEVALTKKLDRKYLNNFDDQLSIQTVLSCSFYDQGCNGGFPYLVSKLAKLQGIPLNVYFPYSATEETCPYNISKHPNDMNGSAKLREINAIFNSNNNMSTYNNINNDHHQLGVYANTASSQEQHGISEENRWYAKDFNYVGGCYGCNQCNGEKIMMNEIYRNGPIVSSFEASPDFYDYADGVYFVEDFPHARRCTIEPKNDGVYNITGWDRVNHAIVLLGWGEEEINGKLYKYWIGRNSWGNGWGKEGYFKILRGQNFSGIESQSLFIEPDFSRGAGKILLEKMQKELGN
row,Structure (SMILES),% Inhibition @ 10 uM [%]
1,N#CC1=C(SCC(N)=O)NC(=O)CC1c1ccc(Br)cc1 (stereo not shown),1.38
2,COc1cccc(C2C3=C(O)CC(C)(C)CC3=NC(C)=C2C(=O)Nc2cccc(C)n2)c1 (stereo not shown),4.09
3,CCOCCn1c(CN(Cc2ccccc2)Cc2ccccc2)nc2c1c(=O)n(C)c(=O)n2C,2
4,COc1ccc(Cl)cc1N(CC(=O)NC(C)c1ccccc1)S(C)(=O)=O (stereo not shown),-5.27
5,O=C(c1ccco1)N1CCc2ccccc21,-3.65
6,COc1cc(/C=C2/SC(=O)N(C(C)C)C2=O)cc2c1OCO2,-5.92
7,CN1C(=O)C(=Cc2ccc(Sc3cccc4ccccc34)o2)C(=O)N(C)C1=O,-6.89
8,O=C1CC(c2cccc(C(F)(F)F)c2)c2ccc3ccccc3c2N1 (stereo not shown),6.18
9,Cc1cc(C)cc(NC(=O)c2ccc(Cl)cc2Cl)c1,-3.04
10,CCc1ccc(S(=O)(=O)NC(CC(=O)O)c2ccccc2)cc1 (stereo not shown),3.04
11,CCc1cccc(CC)c1NC(=O)c1cc(OC)c(OC)c(OC)c1,-0.999
12,Cc1cc(C)c(OCC(=O)Nc2ccc(F)cc2)c(C)c1,1.64
13,CCCCNS(=O)(=O)c1ccc(NC(=O)C2CCCO2)cc1 (stereo not shown),0.686
14,CCC(C(=O)NCc1ccc(OC)cc1)n1nc(C)n2c(cc3sccc32)c1=O (stereo not shown),1.8
15,Cc1noc(C)c1S(=O)(=O)N1CCN(C(=O)c2ccco2)CC1,-1.83
16,COc1ccc(-c2nc(CSc3nc4ccncc4[nH]3)c(C)o2)cc1OC,-2.37
17,CC(C)N1C(=O)/C(=C\c2ccc(C(=O)O)cc2)S/C1=N\c1ccccc1,3.79
18,CN(CC(=O)N1CC=C(c2ccccc2)CC1)S(=O)(=O)c1cccs1,3.5
19,COc1cc(OC)c2c(O)cc(O)nc2c1,3.44
20,CCOc1ccccc1C1C2=C(O)CC(C)(C)CC2=Nc2ccccc2N1C(C)=O (stereo not shown),0.76
21,Cc1cc(OCC(=O)Nc2ccc(S(=O)(=O)N3CCc4ccccc43)cc2)ccc1Cl,8.18
22,Cc1ccc(C(=O)Nc2c(-c3ccc(F)cc3)nc3ccccn23)cc1,-0.58

row,Structure (SMILES),% Inhibition @ 10 uM [%]
1,O=C(NCc1ccco1)c1ccc2nc3ccsc3c(=O)n2c1,-3.35
2,COc1ccc(NS(=O)(=O)c2ccc(C)c(C(=O)O)c2)cc1,-2.82
3,COc1ccccc1/C=C/c1nc(C#N)c(NCc2ccc3c(c2)OCO3)o1,-0.808
4,N#Cc1ccc(Cn2c(=O)n(CCc3c[nH]c4ccccc34)c(=O)c3cccnc32)cc1,3.32
5,COC(=O)Nc1scc(-c2cc(C)ccc2C)c1C#N,-1.98
6,CC(C)CNC(=O)C(=O)Nc1cccc(Cl)c1,-5.9
7,CCOC(=O)c1c(NC(=O)COc2ccccc2)sc2c1CC(C)(C)NC2(C)C,-3.27
8,CC(=O)NC1=NC(=O)/C(=C/c2cc(C)n(-c3cccc(C(=O)O)c3)c2C)S1,4.22
9,CN1CCN(c2cnn(C34CC5CC(CC(C5)C3)C4)c(=O)c2Cl)CC1,1.72
10,CCCNC(=O)CCc1c(C)nc2c(c(C)nn2-c2ccc(C)c(C)c2)c1C,4.14
11,COc1ccc(CCNC(=O)CCCn2nc(C)n3ccnc3c2=O)cc1OC,-1.6
12,CCOC(=O)c1cnn(-c2ccc(OC(F)(F)F)cc2)c1N,3.81
13,COCC(C)Nc1ncnc2c1c(-c1ccccc1)cn2-c1cccc(C)c1 (stereo not shown),-1.62
14,C1=C(c2nc3ccccc3[nH]2)CCN(Cc2ccccc2)C1,-2.44
15,Cc1cc(OCC(=O)N(Cc2ccc(C(C)C)cc2)C2CCS(=O)(=O)C2)ccc1Cl (stereo not shown),2.1
16,CC1CCCN(c2nc3c(S(=O)(=O)c4ccccc4)nnn3c3ccsc23)C1 (stereo not shown),3.8
17,COC(=O)C1=C(C)N(C)C(=O)/C1=C\c1ccc2c(c1)OCO2,1.97
18,CN1CCN(C)C1=NC(c1ccccc1)(c1ccccc1)c1ccccc1,0.131
19,CCOC(=O)c1c(NC(=O)c2ccncc2)sc2c1CCC2,14.5
20,Cc1ccc(SCc2cccc(C(=O)O)c2)cc1C,1.64
21,CCn1ncc(C(=O)Nc2ccc(F)cc2)c1C,-3.05
22,CC1(C)CC2CC(C)(CN2C(=O)c2cc(-c3ccccc3O)on2)C1 (stereo not shown),-0.591

row,Structure (SMILES),% Inhibition @ 10 uM [%]
1,Cc1ccc(NC(=O)C2CCC(C)(C(=O)O)C2(C)C)cc1 (stereo not shown),-2.66
2,COc1cc(CNC(=O)c2ccc(Cl)cc2)cc(OC)c1OC,-4.43
3,COc1ccc(/C=C2/N=C(c3ccc(Br)cc3)NC2=O)cc1,-4.11
4,COC(=O)c1c(NC(=O)Cc2ccccc2)sc(C(=O)Nc2ccccc2)c1C,1.43
5,CC1CC(C)CN(C(=O)c2ccc([N+](=O)[O-])cc2)C1 (stereo not shown),-1.48
6,CCC(=O)C1=C(NCCc2c(C)[nH]c3ccccc23)CC(c2ccccc2)CC1=O (stereo not shown),5.88
7,COc1cc(C(=O)Nc2ncccc2Cl)cc(OC)c1OC,-4.93
8,CCCNC(=O)CSc1ncc(C(=O)OCC)c(N)n1,0.677
9,c1cncc(CNC2CCc3ccccc3C2)c1 (stereo not shown),-0.0908
10,CCOC(=O)C1=C(C)NC(=O)NC1c1cc(Cl)ccc1O (stereo not shown),-1.91
11,CCN(CCCNC(=O)Cn1cnc2c(nc3n2CCCCC3)c1=O)Cc1ccccc1,6.99
12,FC(F)(F)COc1nc(N2CCCCC2)nc(N2CCNCC2)n1,-4.35
13,CCOc1ccc(CN2CCOCC2)cc1,-1.78
14,COc1ccc(N(CC(=O)Nc2ccccc2C)S(C)(=O)=O)c(OC)c1,4.76
15,CCCCN(C(=O)Nc1cn(C)c(=O)c2ccccc12)C1CCN(C(C)=O)CC1,7.22
16,CCN1CCCC1CNC(=O)c1cc(C)nc2c1c(C)nn2-c1cccc(Cl)c1C (stereo not shown),6.11
17,CC(=O)N1CCC(C(=O)Nc2nc(-c3ccccc3)ns2)CC1,-6.55
18,N#CSCC(=O)n1c2ccccc2c2ccccc21,0.587
19,Cc1ccccc1CNC(=O)c1ccccc1NC(=O)C1CC=CCC1C(=O)O (stereo not shown),2.49
20,OC1=C2C(=Nc3ccccc3NC2c2ccc(F)cc2)CC(c2cccs2)C1 (stereo not shown),1.57
